Some of the results follow.

The subject of one experiment is HSkMC. Nature of the experiment: cytotoxicity call (relative viability < 0.9). Conditions: 10 µM.
The next experiment concerns HepG2. As to the kind of experiment: cytotoxicity call (relative viability < 0.9). Conditions: 10 µM.
A further experiment has as its system S. aureus RN4220. As to the kind of experiment: growth inhibition call (relative growth <= 0.2). Conditions: 50 µM.

On to `C[C@H](CO)N1C[C@H](C)[C@H](CN(C)C(=O)Nc2ccc(F)cc2)OCCCC[C@H](C)Oc2ccc(NC(=O)Nc3ccc(C(F)(F)F)cc3)cc2C1=O`, for which the cytotoxicity call with HSkMC and with HepG2 was “inactive” in each case. In the experiment on S. aureus RN4220, the growth inhibition call was “inactive”.

Turning to `C[C@@H]1CCCCO[C@H](CN(C)C(=O)Cc2ccccc2)[C@H](C)CN([C@@H](C)CO)C(=O)c2cc(NC(=O)CCC(F)(F)F)ccc2O1`, the cytotoxicity call in the experiment with HSkMC and with HepG2 was “inactive” each time. Also, in the experiment with S. aureus RN4220, the growth inhibition call was “inactive”.

Turning to `COCC#Cc1cnc2c(c1)C(=O)N([C@@H](C)CO)C[C@H](C)[C@@H](CN(C)S(=O)(=O)c1cn(C)cn1)O2`, the cytotoxicity call with HSkMC is “inactive”. Moreover, the cytotoxicity call in the experiment on HepG2 was “active”. Also, the growth inhibition call with S. aureus RN4220 was “inactive”.

For the molecule `CCS(=O)(=O)N1CC[C@]2(CC1)CN(CC1CCOCC1)[C@H](CO)c1c2c2ccc(cc2n1C)OC`, the cytotoxicity call in the experiment on HSkMC and in the experiment on HepG2 was “inactive” each time. In the experiment with S. aureus RN4220, the growth inhibition call is “inactive”.

`C[C@H](CO)N1C[C@H](C)[C@@H](CN(C)Cc2ccncc2)OCCCC[C@H](C)Oc2ccc(NC(=O)Cc3ccccc3)cc2C1=O`: the cytotoxicity call with HSkMC and in the experiment on HepG2 was “inactive” throughout. Also, the growth inhibition call in the experiment on S. aureus RN4220 was “inactive”.

In the case of `CC(C)NC(=O)Nc1cccc2c1O[C@@H](CN(C)S(=O)(=O)c1cccs1)[C@@H](C)CN([C@H](C)CO)C2=O`, the cytotoxicity call with HSkMC and in the experiment on HepG2 was “inactive” in each case. For the same molecule, the growth inhibition call in the experiment with S. aureus RN4220 is “inactive”.

Consider `C[C@H]1CN([C@@H](C)CO)C(=O)c2cccc(NS(=O)(=O)c3cccs3)c2O[C@H]1CN(C)Cc1ccc(Oc2ccccc2)cc1`, for which the cytotoxicity call in the experiment with HSkMC and with HepG2 was “inactive” throughout. Moreover, the growth inhibition call in the experiment with S. aureus RN4220 is “inactive”.

Turning to `Cc1noc(C)c1S(=O)(=O)N(C)C[C@H]1Oc2ccc(NC(=O)Cc3cn(C)c4ccccc34)cc2CC(=O)N([C@H](C)CO)C[C@@H]1C`, the cytotoxicity call in the experiment with HSkMC and with HepG2 was “inactive” in each case. The growth inhibition call in the experiment with S. aureus RN4220 is “inactive”.

In the case of `Cc1ccc(S(=O)(=O)Nc2ccc3c(c2)C(=O)N([C@H](C)CO)C[C@H](C)[C@H](CN(C)C(=O)c2ccccc2)OCCCC[C@H](C)O3)cc1`, the cytotoxicity call with HSkMC and in the experiment on HepG2 was “inactive” in each case. The growth inhibition call with S. aureus RN4220 is “inactive”.

With `O=C(C[C@H]1C=C[C@H](NC(=O)c2cccc(F)c2)[C@H](CO)O1)NCCN1CCCC1`, the cytotoxicity call with HSkMC and with HepG2 was “inactive” in each case. Besides, in the experiment on S. aureus RN4220, the growth inhibition call was “inactive”.

Consider `C[C@H]1CCCCO[C@H](CN(C)S(=O)(=O)c2cccs2)[C@@H](C)CN([C@@H](C)CO)C(=O)c2cc(NC(=O)Nc3ccc(F)cc3)ccc2O1`, for which the cytotoxicity call in the experiment with HSkMC and with HepG2 was “inactive” in each case. In addition, the growth inhibition call in the experiment on S. aureus RN4220 is “inactive”.

In the case of `C=CC[C@@H](CC(=O)NCCO)C(=O)N[C@H](COC(=O)[C@@H](CC=C)CC(=O)OC(C)(C)C)Cc1ccccc1`, the cytotoxicity call with HSkMC and in the experiment on HepG2 was “inactive” throughout. Also, in the experiment with S. aureus RN4220, the growth inhibition call is “inactive”.

Take `Cc1ccc(S[C@]2(C(=O)NCCCN(C)C)CC(=O)N(Cc3cc(C(F)(F)F)cc(C(F)(F)F)c3)[C@@H]2c2ccc(CO)cc2)cc1`: the cytotoxicity call with HSkMC and in the experiment with HepG2 was “inactive” in each case. The growth inhibition call in the experiment with S. aureus RN4220 was “inactive”.

On to `C[C@@H]1CN([C@@H](C)CO)S(=O)(=O)c2ccc(-c3cncnc3)cc2O[C@@H]1CN(C)C(=O)c1cccc(F)c1`, for which the cytotoxicity call in the experiment with HSkMC and with HepG2 was “inactive” each time. The growth inhibition call with S. aureus RN4220 was “inactive”.

Consider `COc1cccc(-c2cnc3c(c2)C(=O)N([C@H](C)CO)C[C@H](C)[C@H](CN(C)S(=O)(=O)c2ccc(F)cc2)O3)c1`, for which the cytotoxicity call with HSkMC and with HepG2 was “inactive” each time. Moreover, the growth inhibition call in the experiment on S. aureus RN4220 is “inactive”.

Consider `C[C@@H]1CCCCO[C@H](CN(C)S(C)(=O)=O)[C@H](C)CN([C@@H](C)CO)C(=O)c2cc(N(C)C)ccc2O1`, for which the cytotoxicity call with HSkMC and in the experiment with HepG2 was “inactive” in each case. In addition, the growth inhibition call in the experiment with S. aureus RN4220 is “inactive”.

In the case of `CCS(=O)(=O)N1C[C@]2(CCN(CC2)S(=O)(=O)c2cn(cn2)C)c2c(n(c3cc(ccc23)OC)C)[C@@H]1CO`, the cytotoxicity call with HSkMC and in the experiment with HepG2 was “inactive” throughout. Also, the growth inhibition call with S. aureus RN4220 is “inactive”.

For the molecule `COC(=O)C[C@@H]1CC[C@@H]2[C@@H](COc3ccc(NS(=O)(=O)c4ccccc4Cl)cc3C(=O)N2C)O1`, the cytotoxicity call in the experiment with HSkMC and with HepG2 was “inactive” throughout. In addition, the growth inhibition call in the experiment on S. aureus RN4220 was “inactive”.

As for `C[C@H](CO)N1C[C@H](C)[C@H](CN(C)C(=O)c2ccccc2)OCCCC[C@H](C)Oc2ccc(NS(=O)(=O)c3ccccc3)cc2C1=O`, the cytotoxicity call in the experiment with HSkMC and in the experiment with HepG2 was “inactive” each time. Moreover, in the experiment with S. aureus RN4220, the growth inhibition call is “inactive”.

Consider `C[C@H](CO)N1C[C@H](C)[C@H](CN(C)S(=O)(=O)c2cccs2)Oc2c(NS(=O)(=O)c3ccccc3)cccc2C1=O`, for which the cytotoxicity call in the experiment with HSkMC and in the experiment on HepG2 was “inactive” in each case. Moreover, in the experiment with S. aureus RN4220, the growth inhibition call is “inactive”.

Regarding `C[C@@H]1CN([C@H](C)CO)C(=O)Cc2cc(NC(=O)Nc3ccc4c(c3)OCO4)ccc2O[C@@H]1CN(C)C(=O)Nc1ccc(C(F)(F)F)cc1`, the cytotoxicity call in the experiment with HSkMC is “inactive”. Besides, in the experiment with HepG2, the cytotoxicity call is “active”. Further, the growth inhibition call with S. aureus RN4220 was “inactive”.

Turning to `COc1ccc(S(=O)(=O)N(C)C[C@H]2Oc3ccc(NC(=O)CCN4CCOCC4)cc3CC(=O)N([C@H](C)CO)C[C@@H]2C)cc1`, the cytotoxicity call in the experiment with HSkMC and with HepG2 was “inactive” each time. For the same molecule, in the experiment on S. aureus RN4220, the growth inhibition call is “inactive”.

Turning to `C[C@@H]1CCCCO[C@@H](CN(C)Cc2ccc(C(F)(F)F)cc2)[C@@H](C)CN([C@H](C)CO)C(=O)c2cc(N(C)C)ccc2O1`, the cytotoxicity call in the experiment with HSkMC and in the experiment on HepG2 was “inactive” in each case. The growth inhibition call with S. aureus RN4220 was “inactive”.

For the molecule `Cc1ccc(S(=O)(=O)N(C)C[C@@H]2OCCCC[C@H](C)Oc3ccc(NS(=O)(=O)c4ccc(Cl)cc4)cc3C(=O)N([C@H](C)CO)C[C@H]2C)cc1`, the cytotoxicity call with HSkMC is “inactive”. In the experiment with HepG2, the cytotoxicity call was “active”. Further, in the experiment on S. aureus RN4220, the growth inhibition call was “inactive”.

For the molecule `Cc1noc(C)c1NC(=O)Nc1ccc2c(c1)CC(=O)N([C@@H](C)CO)C[C@H](C)[C@@H](CN(C)Cc1ccc(-c3ccccc3)cc1)O2`, the cytotoxicity call in the experiment on HSkMC (human skeletal muscle cells) and in the experiment on HepG2 was “inactive” each time. Moreover, the growth inhibition call in the experiment with S. aureus RN4220 was “inactive”.

As to `COc1ccc(S(=O)(=O)Nc2ccc3c(c2)C(=O)N([C@H](C)CO)C[C@@H](C)[C@@H](CN(C)C(=O)Nc2ccc(C(F)(F)F)cc2)OCCCC[C@@H](C)O3)cc1`, the cytotoxicity call with HSkMC and in the experiment with HepG2 was “inactive” each time. Also, the growth inhibition call in the experiment with S. aureus RN4220 is “inactive”.

`CNC[C@H]1OCCCC[C@H](C)Oc2ccc(NC(=O)Nc3ccc(C(F)(F)F)cc3)cc2C(=O)N([C@H](C)CO)C[C@@H]1C`: the cytotoxicity call with HSkMC and in the experiment with HepG2 was “inactive” in each case. For the same molecule, in the experiment with S. aureus RN4220, the growth inhibition call was “inactive”.

The record behind these values is the antibiotic and cytotoxicity screens of Wong et al. (2023).
